In the supplement of paper PMC10369915 one finds enrichment score data, which are given here for 18 molecules.

The other results are listed elsewhere or left out. Rule as the data show it: active = 3.2 or more and inactive = the rest. The signal is at background level for most entries.
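Also: displayed peptides selected on beads carrying the immobilized SH2 domain, with library peptides lacking any tyrosine serving as negative controls.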

In one assay the target is SHP2 C-SH2 domain E139D. The assay is described as follows: enrichment score (SH2-bound / input frequency) (ratio); bacterial display of known human phosphotyrosine sites (pTyr-Var adds point mutants) read by sequencing; higher = stronger binding; tyrosines were phosphorylated by kinases first. The note with it: peptide library: Human pTyr.
Consider YPAEDSTYDEYENDL [SRC8_HUMAN_486], for which the enrichment score is inactive: 0.847.
Still for that read-out and setting: with STTLSTLYPSTSSLL [STAM1_HUMAN_198] the figure was inactive: 0.477; with VMEALSLYTKLMNED [STAM1_HUMAN_371], inactive: 1.13; with APAEDSTYDEAENDL [SRC8_HUMAN_486_YA], inactive: 1.02.
The same measure, in the same setting: with EAPVYSVYSKLHPPA [STAM2_HUMAN_374] the figure was inactive: 0.742.
As to TERGDKGYVPSVFIP [STAT4_HUMAN_693], the enrichment score is inactive: 0.603.
Consider DKYGNEGYIPSNYVT [TEC_HUMAN_228], for which the enrichment score is inactive: 0.679.
With TAKAVDGYVKPQIKQ [STA5B_HUMAN_699], the enrichment score is inactive: 0.969.
EGQMYQQYQQQAGYG [TFG_HUMAN_247]: the enrichment score was inactive: 0.568.
Same read-out and setting: with TEATATDYHTTSHPG [B3AT_HUMAN_46] the figure was inactive: 0.574; with AREKLALYVAEALLH [SSBP3_HUMAN_23_YA], inactive: 1.97.
The same measure, in the same setting: with CETVISYYTDMEEIG [BCAP_HUMAN_263] the figure was inactive: 1.49; with ATTQLDDYLGGSPVQ [AVIL_HUMAN_85_YA], inactive: 0.572.
On the same count and under the same terms, the value for MAALEKDYEEVGIDS [TBA4A_HUMAN_432] was inactive: 1.18; that for EKEPTEDYVDVLNPM [STAP1_HUMAN_168] was inactive: 1.02.
As for AQRCTISYRAPELFS [STK16_HUMAN_198], the enrichment score is inactive: 1.14.
Same read-out and setting: the value for KEKTGKEYIPGQPPL [SYEP_HUMAN_872] was inactive: 1.11.
Take SMPGNRLYVHPDSPN [TBX21_HUMAN_220]: the enrichment score is inactive: 0.638.

The next assay deals with SHP2 C-SH2 domain wild-type. The description is as above. The note with it: peptide library: Human pTyr.
As to YPAEDSTYDEYENDL [SRC8_HUMAN_486], the enrichment score is inactive: 1.46.
For STTLSTLYPSTSSLL [STAM1_HUMAN_198], the enrichment score was inactive: 0.438.
Same read-out and setting: the value for VMEALSLYTKLMNED [STAM1_HUMAN_371] was inactive: 1.42; that for APAEDSTYDEAENDL [SRC8_HUMAN_486_YA] was inactive: 1.21.
Still for that read-out and setting: the value for EAPVYSVYSKLHPPA [STAM2_HUMAN_374] was inactive: 1.44.
The same measure, in the same setting: with TERGDKGYVPSVFIP [STAT4_HUMAN_693] the figure was inactive: 0.708.
For DKYGNEGYIPSNYVT [TEC_HUMAN_228], the enrichment score is inactive: 0.515.
TAKAVDGYVKPQIKQ [STA5B_HUMAN_699]: the enrichment score was inactive: 0.852.
For EGQMYQQYQQQAGYG [TFG_HUMAN_247], the enrichment score was inactive: 0.516.
On the same count and under the same terms, with TEATATDYHTTSHPG [B3AT_HUMAN_46] the figure was inactive: 0.505.
Turning to AREKLALYVAEALLH [SSBP3_HUMAN_23_YA], the enrichment score is inactive: 1.77.
Same read-out and setting: with CETVISYYTDMEEIG [BCAP_HUMAN_263] the figure was inactive: 1.41; with ATTQLDDYLGGSPVQ [AVIL_HUMAN_85_YA], inactive: 0.41; with MAALEKDYEEVGIDS [TBA4A_HUMAN_432], inactive: 1.05.
Same read-out and setting: with EKEPTEDYVDVLNPM [STAP1_HUMAN_168] the figure was inactive: 0.924; with AQRCTISYRAPELFS [STK16_HUMAN_198], inactive: 0.977; with KEKTGKEYIPGQPPL [SYEP_HUMAN_872], inactive: 1.43.
As to SMPGNRLYVHPDSPN [TBX21_HUMAN_220], the enrichment score is inactive: 0.502.

In the next assay the target is SHP2 N-SH2 domain L43F. Described as above. The note with it: peptide library: Human pTyr.
Consider YPAEDSTYDEYENDL [SRC8_HUMAN_486], for which the enrichment score was inactive: 0.828.
Turning to STTLSTLYPSTSSLL [STAM1_HUMAN_198], the enrichment score is inactive: 0.535.
For the molecule VMEALSLYTKLMNED [STAM1_HUMAN_371], the enrichment score was inactive: 1.04.
Consider APAEDSTYDEAENDL [SRC8_HUMAN_486_YA], for which the enrichment score is inactive: 1.25.
Same read-out and setting: with EAPVYSVYSKLHPPA [STAM2_HUMAN_374] the figure was inactive: 0.782; with TERGDKGYVPSVFIP [STAT4_HUMAN_693], inactive: 0.628.
Still for that read-out and setting: the value for DKYGNEGYIPSNYVT [TEC_HUMAN_228] was inactive: 0.752.
Still for that read-out and setting: the value for TAKAVDGYVKPQIKQ [STA5B_HUMAN_699] was inactive: 0.856.
On to EGQMYQQYQQQAGYG [TFG_HUMAN_247], for which the enrichment score was inactive: 0.554.
Consider TEATATDYHTTSHPG [B3AT_HUMAN_46], for which the enrichment score was inactive: 0.887.
Same read-out and setting: with AREKLALYVAEALLH [SSBP3_HUMAN_23_YA] the figure was inactive: 1.78.
CETVISYYTDMEEIG [BCAP_HUMAN_263]: the enrichment score was inactive: 1.34.
Still for that read-out and setting: the value for ATTQLDDYLGGSPVQ [AVIL_HUMAN_85_YA] was inactive: 0.583.
For the molecule MAALEKDYEEVGIDS [TBA4A_HUMAN_432], the enrichment score was inactive: 1.07.
In the case of EKEPTEDYVDVLNPM [STAP1_HUMAN_168], the enrichment score was inactive: 0.951.
Regarding AQRCTISYRAPELFS [STK16_HUMAN_198], the enrichment score was inactive: 1.29.
On the same count and under the same terms, with KEKTGKEYIPGQPPL [SYEP_HUMAN_872] the figure was inactive: 1.13.
On the same count and under the same terms, with SMPGNRLYVHPDSPN [TBX21_HUMAN_220] the figure was inactive: 0.547.

The next assay deals with SHP2 N-SH2 domain T42A. The assay is described as above. To be noted: peptide library: Human pTyr.
For the molecule YPAEDSTYDEYENDL [SRC8_HUMAN_486], the enrichment score is inactive: 1.36.
On the same count and under the same terms, the value for STTLSTLYPSTSSLL [STAM1_HUMAN_198] was inactive: 0.446.
Same read-out and setting: the value for VMEALSLYTKLMNED [STAM1_HUMAN_371] was inactive: 1.06; that for APAEDSTYDEAENDL [SRC8_HUMAN_486_YA] was inactive: 1.63.
In the case of EAPVYSVYSKLHPPA [STAM2_HUMAN_374], the enrichment score is inactive: 0.618.
For TERGDKGYVPSVFIP [STAT4_HUMAN_693], the enrichment score was inactive: 0.61.
Same read-out and setting: with DKYGNEGYIPSNYVT [TEC_HUMAN_228] the figure was inactive: 0.498; with TAKAVDGYVKPQIKQ [STA5B_HUMAN_699], inactive: 0.896; with EGQMYQQYQQQAGYG [TFG_HUMAN_247], inactive: 0.437.
As to TEATATDYHTTSHPG [B3AT_HUMAN_46], the enrichment score is inactive: 0.518.
Same read-out and setting: with AREKLALYVAEALLH [SSBP3_HUMAN_23_YA] the figure was inactive: 1.83.
The same measure, in the same setting: with CETVISYYTDMEEIG [BCAP_HUMAN_263] the figure was inactive: 1.48.
Still for that read-out and setting: with ATTQLDDYLGGSPVQ [AVIL_HUMAN_85_YA] the figure was inactive: 0.493; with MAALEKDYEEVGIDS [TBA4A_HUMAN_432], inactive: 1.03; with EKEPTEDYVDVLNPM [STAP1_HUMAN_168], inactive: 1.29.
For the molecule AQRCTISYRAPELFS [STK16_HUMAN_198], the enrichment score is inactive: 1.02.
Same read-out and setting: the value for KEKTGKEYIPGQPPL [SYEP_HUMAN_872] was inactive: 0.963.
As for SMPGNRLYVHPDSPN [TBX21_HUMAN_220], the enrichment score is inactive: 0.592.

In the next assay the target is SHP2 N-SH2 domain T52S. Described as above. The note with it: peptide library: Human pTyr.
In the case of YPAEDSTYDEYENDL [SRC8_HUMAN_486], the enrichment score was inactive: 1.09.
STTLSTLYPSTSSLL [STAM1_HUMAN_198]: the enrichment score was inactive: 0.452.
Still for that read-out and setting: the value for VMEALSLYTKLMNED [STAM1_HUMAN_371] was inactive: 1.09; that for APAEDSTYDEAENDL [SRC8_HUMAN_486_YA] was inactive: 1.66; that for EAPVYSVYSKLHPPA [STAM2_HUMAN_374] was inactive: 0.662.
Same read-out and setting: the value for TERGDKGYVPSVFIP [STAT4_HUMAN_693] was inactive: 0.477.
With DKYGNEGYIPSNYVT [TEC_HUMAN_228], the enrichment score is inactive: 0.527.
Still for that read-out and setting: with TAKAVDGYVKPQIKQ [STA5B_HUMAN_699] the figure was inactive: 0.854; with EGQMYQQYQQQAGYG [TFG_HUMAN_247], inactive: 0.507; with TEATATDYHTTSHPG [B3AT_HUMAN_46], inactive: 0.737.
Turning to AREKLALYVAEALLH [SSBP3_HUMAN_23_YA], the enrichment score was inactive: 1.82.
CETVISYYTDMEEIG [BCAP_HUMAN_263]: the enrichment score was inactive: 1.85.
On the same count and under the same terms, the value for ATTQLDDYLGGSPVQ [AVIL_HUMAN_85_YA] was inactive: 0.515.
On the same count and under the same terms, with MAALEKDYEEVGIDS [TBA4A_HUMAN_432] the figure was inactive: 0.959.
As to EKEPTEDYVDVLNPM [STAP1_HUMAN_168], the enrichment score is inactive: 0.991.
Still for that read-out and setting: the value for AQRCTISYRAPELFS [STK16_HUMAN_198] was inactive: 1.4; that for KEKTGKEYIPGQPPL [SYEP_HUMAN_872] was inactive: 1.45.
Same read-out and setting: with SMPGNRLYVHPDSPN [TBX21_HUMAN_220] the figure was inactive: 0.553.

The next assay deals with SHP2 N-SH2 domain wild-type. Described as above. The note with it: peptide library: Human pTyr.
As to YPAEDSTYDEYENDL [SRC8_HUMAN_486], the enrichment score is inactive: 1.61.
For STTLSTLYPSTSSLL [STAM1_HUMAN_198], the enrichment score is inactive: 0.389.
Same read-out and setting: the value for VMEALSLYTKLMNED [STAM1_HUMAN_371] was inactive: 1.12.
The same measure, in the same setting: with APAEDSTYDEAENDL [SRC8_HUMAN_486_YA] the figure was inactive: 1.24; with EAPVYSVYSKLHPPA [STAM2_HUMAN_374], inactive: 0.763; with TERGDKGYVPSVFIP [STAT4_HUMAN_693], inactive: 0.68.
For DKYGNEGYIPSNYVT [TEC_HUMAN_228], the enrichment score was inactive: 0.444.
Still for that read-out and setting: the value for TAKAVDGYVKPQIKQ [STA5B_HUMAN_699] was inactive: 0.89; that for EGQMYQQYQQQAGYG [TFG_HUMAN_247] was inactive: 0.85; that for TEATATDYHTTSHPG [B3AT_HUMAN_46] was inactive: 0.602.
On the same count and under the same terms, with AREKLALYVAEALLH [SSBP3_HUMAN_23_YA] the figure was inactive: 2.27; with CETVISYYTDMEEIG [BCAP_HUMAN_263], inactive: 1.7.
Still for that read-out and setting: with ATTQLDDYLGGSPVQ [AVIL_HUMAN_85_YA] the figure was inactive: 0.439.
Take MAALEKDYEEVGIDS [TBA4A_HUMAN_432]: the enrichment score is inactive: 1.22.
In the case of EKEPTEDYVDVLNPM [STAP1_HUMAN_168], the enrichment score was inactive: 1.14.
Still for that read-out and setting: the value for AQRCTISYRAPELFS [STK16_HUMAN_198] was inactive: 1.3.
KEKTGKEYIPGQPPL [SYEP_HUMAN_872]: the enrichment score was inactive: 1.44.
The same measure, in the same setting: the value for SMPGNRLYVHPDSPN [TBX21_HUMAN_220] was inactive: 0.515.
